Assay [1] addresses T1, mouse SIRPA overexpressed on CHO cells (mouse, UniProt P97797 32-513).
T1 construct: also called CHO-muSIRPA
T1 sequence: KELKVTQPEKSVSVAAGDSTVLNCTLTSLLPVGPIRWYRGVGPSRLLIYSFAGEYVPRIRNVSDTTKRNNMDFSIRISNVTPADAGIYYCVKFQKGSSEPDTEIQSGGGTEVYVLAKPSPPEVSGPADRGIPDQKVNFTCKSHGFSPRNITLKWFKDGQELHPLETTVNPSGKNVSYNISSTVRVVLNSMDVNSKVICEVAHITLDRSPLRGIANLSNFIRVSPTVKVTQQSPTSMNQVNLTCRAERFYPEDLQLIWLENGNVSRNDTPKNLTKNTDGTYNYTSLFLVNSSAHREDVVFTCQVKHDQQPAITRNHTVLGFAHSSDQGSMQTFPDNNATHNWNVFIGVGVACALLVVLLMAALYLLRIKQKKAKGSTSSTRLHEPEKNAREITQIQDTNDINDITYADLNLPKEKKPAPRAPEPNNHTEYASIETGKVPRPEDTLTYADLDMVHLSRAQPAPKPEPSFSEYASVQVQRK
As to the kind of experiment: flow, CHO-muSIRPA.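 Also: antibody binding measured by flow cytometry: cells stained with 1 ug/ml test antibody for 1 h on ice, detected with PE-labelled secondary antibody.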

For assay [2], the target named is T2, human SIRPA overexpressed on CHO cells (human, UniProt P78324 31-504).
T2 construct: also called CHO-huSIRPA
As to the kind of experiment: flow, CHO-huSIRPA.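 Also: Anti-SIRPA antibodies applied at 1 µg/mL for 1 h on ice, binding read by flow cytometry using a PE-labelled secondary antibody.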

A further assay deals with T3, Human SIRPA D1 Fc (human, UniProt P78324 32-137).
T3 construct: not shown: human IgG1 Fc
The assay can be described thus: ForteBio IgG avid.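 Also: antibody IgG captured on AHQ biosensors, then 100 nM Fc-fused SIRP antigen applied for 3 min, followed by 3 min buffer dissociation, kinetics fitted to a 1:1 model.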

A further assay addresses T4, Mouse SIRPA D1 Fc (mouse, UniProt P97797 32-150, limits assumed).
T4 sequence: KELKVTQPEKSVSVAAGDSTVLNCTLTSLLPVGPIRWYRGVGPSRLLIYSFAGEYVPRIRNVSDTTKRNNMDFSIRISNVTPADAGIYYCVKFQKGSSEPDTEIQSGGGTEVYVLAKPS
As to the kind of experiment: ForteBio IgG avid.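 Also: antibody IgG captured on AHQ biosensors, then 100 nM Fc-fused SIRP antigen applied for 3 min, followed by 3 min buffer dissociation, kinetics fitted to a 1:1 model.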

The target of the next assay is Human SIRPb D1 Fc (human, UniProt O00241 30-148, limits assumed). As to the kind of experiment: ForteBio IgG avid.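 Also: antibody IgG captured on AHQ biosensors, then 100 nM Fc-fused SIRP antigen applied for 3 min, followed by 3 min buffer dissociation, kinetics fitted to a 1:1 model.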
Assay [3] has as its target T5, human SIRPA Fc fusion antigen (human, UniProt P78324 31-373).
T5 construct: heterologous signal peptide; not shown: human IgG1 Fc
As to the kind of experiment: ForteBio Fab monovalent.

Data on two molecules can be found in patent US20240270866A1 (Alector, published 2024).

Sequence of Human SIRPb D1 Fc (O00241 30-148 limits assumed): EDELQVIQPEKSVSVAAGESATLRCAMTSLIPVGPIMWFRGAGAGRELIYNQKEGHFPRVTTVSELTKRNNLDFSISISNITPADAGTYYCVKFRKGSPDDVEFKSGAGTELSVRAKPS

B1: SA-21 (antibody, V domains shown)
VH: [about 100 residues not written out]DPLHYYDSSGDVGIYWGQGTLVTVSS
VL: DIVMTQSPDSLAVSLGERATINCKSSQSVLFSSNNKNYLAWYQQKPGQPPKLLIYWASTRESGVPDRFSGSGSGTDFTLTISSLQAEDVAVYYCQQDYATPFTFGGGTKVEIK
notes: IgG
Take B1: the “relative MFI” value in assay [1] amounted to 0.542 fold over background; in assay [2], 49.2 fold over background. The molecule also displayed a Kd in the assay with Human SIRPA D1 Fc of 6.89 nM. Further, the binding result with Mouse SIRPA D1 Fc and in the assay with Human SIRPb D1 Fc was “no binding (tested: 100 nM)” in each case.

B2: SA-21 Fab (Fab, V domains shown)
VH: [about 100 residues not written out]DPLHYYDSSGDVGIYWGQGTLVTVSS
VL: B1 VL
notes: papain Fab
B2 had a dissociation constant (Kd) in assay [3] of 359 nM. In other words, the sub-micromolar range.
